The source of these data is article PMC4336329 (PLoS ONE, 2015).

The structures appear in SMILES notation. The whole screen tested about 310,000 compounds, of which about 14,000 (4.5%) showed an effect of 50% or more. Effects have a minus sign here. The list shows a part of the results.
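Further: peak tail current of the secondary pulse compared with the same well before compound.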

The target of this test is human ether-à-go-go-related gene (hERG) potassium channel (human, UniProt Q12809). As to the kind of experiment: primary screen, population patch clamp on CHO cells stably expressing hERG.
human ether-à-go-go-related gene (hERG) potassium channel, sequence (Q12809 whole entry, looked up): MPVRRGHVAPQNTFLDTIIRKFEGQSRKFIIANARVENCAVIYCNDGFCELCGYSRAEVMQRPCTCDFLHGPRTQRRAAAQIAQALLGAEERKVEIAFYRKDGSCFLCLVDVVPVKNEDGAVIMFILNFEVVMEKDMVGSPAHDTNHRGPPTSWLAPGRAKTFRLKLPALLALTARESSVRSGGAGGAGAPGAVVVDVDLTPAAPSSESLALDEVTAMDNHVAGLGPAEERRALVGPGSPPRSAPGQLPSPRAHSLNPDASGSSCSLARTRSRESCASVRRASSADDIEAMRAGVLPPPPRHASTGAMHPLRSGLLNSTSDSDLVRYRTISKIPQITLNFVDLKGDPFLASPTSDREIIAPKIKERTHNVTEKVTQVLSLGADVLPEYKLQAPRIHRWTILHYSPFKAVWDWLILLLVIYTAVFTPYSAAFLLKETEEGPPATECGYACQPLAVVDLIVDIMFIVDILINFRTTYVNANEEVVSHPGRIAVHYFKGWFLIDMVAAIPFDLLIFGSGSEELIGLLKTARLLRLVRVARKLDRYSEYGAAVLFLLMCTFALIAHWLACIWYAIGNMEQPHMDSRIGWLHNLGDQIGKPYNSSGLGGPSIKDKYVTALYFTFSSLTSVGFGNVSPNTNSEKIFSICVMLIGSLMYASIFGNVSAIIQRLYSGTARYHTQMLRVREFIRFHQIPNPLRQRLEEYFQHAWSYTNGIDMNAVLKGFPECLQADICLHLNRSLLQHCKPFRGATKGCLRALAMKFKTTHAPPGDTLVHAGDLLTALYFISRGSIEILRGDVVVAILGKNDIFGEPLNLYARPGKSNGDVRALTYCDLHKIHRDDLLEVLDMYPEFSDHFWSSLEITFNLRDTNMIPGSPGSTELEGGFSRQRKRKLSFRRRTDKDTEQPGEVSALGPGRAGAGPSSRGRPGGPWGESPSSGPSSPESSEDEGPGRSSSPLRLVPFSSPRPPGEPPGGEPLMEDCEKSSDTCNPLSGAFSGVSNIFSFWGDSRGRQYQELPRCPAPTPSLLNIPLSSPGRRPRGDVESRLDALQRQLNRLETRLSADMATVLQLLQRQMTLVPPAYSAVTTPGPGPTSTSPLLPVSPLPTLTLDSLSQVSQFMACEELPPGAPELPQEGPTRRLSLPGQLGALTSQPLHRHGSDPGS
In the case of `Cc1nc(C2COc3ccccc3O2)sc1C(=O)O` (stereo not drawn), the “hERG current change (%, negative = inhibition) at 10uM” value is 13.8%. As to `CC(C)Oc1ccc(S(=O)(=O)N2CCOCC2)cc1NC(=O)CC1OC(=O)c2ccccc21` (stereo not drawn), the “hERG current change (%, negative = inhibition) at 10uM” value is reported as -25%. As to `CCOC(=O)C1CCN(Cc2cn[nH]c2-c2ccc(C)cc2)CC1`, the “hERG current change (%, negative = inhibition) at 10uM” value was -51.8%.

On to `Cc1cc(C)cc(OCCCCn2cncn2)c1`, for which the “hERG current change (%, negative = inhibition) at 10uM” value is 1.77%. In the case of `COc1ccc2nc(C(F)(F)C(F)(F)F)c(C#N)c(N)c2c1`, the “hERG current change (%, negative = inhibition) at 10uM” value stood at 15.9%. Under `Cc1ccc(Cl)cc1N(CC(=O)N1CCOCC1)S(C)(=O)=O` stands 8.23%. `Nc1nc(NCCOCCO)nc(NC2CCCCC2)c1[N+](=O)[O-]`: the “hERG current change (%, negative = inhibition) at 10uM” value is given as -4.02%. In the case of `OCCC1CN(C2CSCCSC2)CCN1Cc1ccccc1` (stereo not drawn), the “hERG current change (%, negative = inhibition) at 10uM” value is 11.9%.

Take `O=[N+]([O-])c1ccc(OCCn2cncn2)cc1`: the “hERG current change (%, negative = inhibition) at 10uM” value was 5.29%.

As for `O=Cc1cnc(N2CCN(Cc3ccccc3)CC2)s1`, the “hERG current change (%, negative = inhibition) at 10uM” value is reported as -8.97%. Under `COc1ccc(CCNC(=O)C(=O)c2cn(CC(=O)N3CCOCC3)c3ccccc23)cc1` stands 7.24%; under `CCN(c1ccc(OC)cc1)S(=O)(=O)c1nnc(NC(=O)CC(C)C)s1`, -0.0537%. On to `CC1=CC(C)(C)NC(=S)N1c1cccc2cc(S(=O)(=O)O)ccc12`, for which the “hERG current change (%, negative = inhibition) at 10uM” value was 15.6%. Turning to `COC(=O)c1ccc(C(=O)N(C)C2CCCN(Cc3ccccc3F)C2)nc1` (stereo not drawn), the “hERG current change (%, negative = inhibition) at 10uM” value is given as 18.6%. Under `Cc1cc(S(=O)(=O)NCC(C)C)ccc1OCC(=O)N1CCN(Cc2ccccc2)CC1` stands -35.2%; under `Cc1ccc(C)c(N/C=C(\C#N)c2nc3ccccc3o2)c1`, 3.92%; under `CC1CCCCC12NC(=O)N(Cc1cc(=O)n3ccsc3n1)C2=O` (stereo not drawn), 5.65%.

For `Cc1sc2ncnc(NCc3ccco3)c2c1C`, the “hERG current change (%, negative = inhibition) at 10uM” value is recorded as -16.3%.

As for `COC(=O)c1ccc(Cn2nc(-c3cc(C)ccc3C)ccc2=O)cc1`, the “hERG current change (%, negative = inhibition) at 10uM” value is -6.58%. As for `O=C(Cn1c2ccccc2c2nc3n(c(=O)c21)CCS3)N1CCCC1`, the figure is 11.5%; as for `Cc1ccc(C(=O)CSc2nnc(COc3cccc4cccnc34)o2)cc1`, -20.3%. `O=C(Cc1ccccc1)N1CCN(Cc2ccccn2)CC1`: the “hERG current change (%, negative = inhibition) at 10uM” value is -1.55%.

Turning to `Cc1c(C(=O)Nc2cnccn2)oc2ccccc12`, the “hERG current change (%, negative = inhibition) at 10uM” value is -7.71%. For `O=C(/C(=N/N=C/c1ccc(O)c(O)c1)c1ccccc1)c1ccccc1`, the “hERG current change (%, negative = inhibition) at 10uM” value was 3.4%. Take `CN(C(=O)COC(=O)c1cc(=O)[nH]c2ccccc12)c1c(N)n(Cc2ccccc2)c(=O)[nH]c1=O`: the “hERG current change (%, negative = inhibition) at 10uM” value is -7.96%.

Consider `C/C(=N/NC(=O)c1ccccn1)c1ccco1`, for which the “hERG current change (%, negative = inhibition) at 10uM” value was 11.4%.

Regarding `Cc1ccc(OCCNC(=O)/C=C/c2ccccc2)cc1`, the “hERG current change (%, negative = inhibition) at 10uM” value is recorded as -3.75%. Under `CC(=O)c1cccc(CN2CCC(CO)(Cc3ccccc3)CC2)c1` stands -22.9%; under `CCN(CC)S(=O)(=O)c1ccc2c(c1)c(=O)c(C(=O)N1CCc3ccccc3C1)cn2C`, -30.4%.

As to `CC(NC(=O)COC(=O)Cc1ccsc1)c1ccccc1` (stereo not drawn), the “hERG current change (%, negative = inhibition) at 10uM” value is listed as -4.98%.

Turning to `OC(CNCc1ccco1)Cn1c2ccccc2c2ccccc21` (stereo not drawn), the “hERG current change (%, negative = inhibition) at 10uM” value is on record as -58.4%. On to `COc1ccc(C(=O)NCC2CCCN2S(=O)(=O)c2cccs2)cc1OC` (stereo not drawn), for which the “hERG current change (%, negative = inhibition) at 10uM” value is on record as -3.01%. In the case of `CCOc1ccc(C(=O)NCC(=O)OCc2cc([N+](=O)[O-])cc3c2OCOC3)cc1OCC`, the “hERG current change (%, negative = inhibition) at 10uM” value is given as -12%. Turning to `COc1ccccc1CNC(=O)C1CCN(C(=O)N(C)C)CC1`, the “hERG current change (%, negative = inhibition) at 10uM” value was determined as 13.7%.

On to `Cc1ccc2nsnc2c1S(=O)(=O)N(CCO)Cc1cc2cc3c(cc2[nH]c1=O)OCCO3`, for which the “hERG current change (%, negative = inhibition) at 10uM” value came out at 9.12%.

Regarding `Cc1cc(NC(=O)COC(=O)c2oc3c(Cl)cccc3c2C)no1`, the “hERG current change (%, negative = inhibition) at 10uM” value is on record as 8.03%. For `CCOC(=O)c1cccc(NC(=O)c2c(N)n(C)c(=O)[nH]c2=O)c1`, the “hERG current change (%, negative = inhibition) at 10uM” value came out at 19.9%. Under `CC(OC(=O)c1cc(=O)[nH]c2ccccc12)C(=O)NC1CCCC1` (stereo not drawn) stands -7.37%.

As for `COc1cccc(NC(=O)CCNS(=O)(=O)c2ccc(Br)s2)c1`, the “hERG current change (%, negative = inhibition) at 10uM” value is given as -32.6%.

Consider `O=C(Nc1cc(Br)ccc1O)c1cc(-c2ccco2)on1`, for which the “hERG current change (%, negative = inhibition) at 10uM” value is given as 13%. As for `O=C(NCc1ccccn1)c1cc(-c2ccccc2)nc2ccccc12`, the figure is -25.2%. As to `CCCN(CCC)Cc1cc2ccccc2c2c1COC2`, the “hERG current change (%, negative = inhibition) at 10uM” value is on record as -29%. Take `COc1cc(C(=O)OCC(=O)NC2CC2)cc(OC)c1OC`: the “hERG current change (%, negative = inhibition) at 10uM” value is reported as -0.0787%. Under `COc1ccc(CNC(=O)[C@H](C)NC(=O)C2CC(=O)N(c3ccc(OC)cc3)C2)cc1` (stereo partly drawn) stands 1.04%; under `COC(=O)CNC(c1ccccc1)c1cc(C)ccc1NC(=O)CNC(=O)OCc1ccccc1` (stereo not drawn), -31.4%; under `CCOC(=O)c1nn(-c2ccc(Cl)cc2)c2nc(CC)c(C#N)c(=O)n12`, -0.431%. `O=C1CCc2cc(S(=O)(=O)N3CCC(C(=O)NC4CCCCCCC4)CC3)ccc2N1`: the “hERG current change (%, negative = inhibition) at 10uM” value was determined as 10.8%. As for `CC(C)c1cccc(C(C)C)c1NC(=O)CN1C(=O)NC2(CCCCCCC2)C1=O`, the figure is -1.05%.

As to `COc1ccccc1NC(=O)/C(=N/OCc1ccc(F)cc1)C(C)=O`, the “hERG current change (%, negative = inhibition) at 10uM” value was -16.4%. Under `O=C(Nc1ccc(N2CCOCC2)c(Cl)c1)c1ccc(-n2cnnc2)cc1` stands 2.2%; under `CS(=O)(=O)N(CC(=O)NC1CCCCC1)Cc1ccc(Cl)cc1`, 3.78%. Turning to `O=C(NCCc1nc(-c2ccccc2Cl)no1)c1ccccc1`, the “hERG current change (%, negative = inhibition) at 10uM” value is recorded as -1.07%. Under `Cc1ccc(CCNS(=O)(=O)c2cc(Br)cnc2N)cc1` stands 5.97%. Under `CCNC(=O)CC1C(=O)N(c2cccc(C)c2)C(=O)N1CCC(C)C` (stereo not drawn) stands -75%; under `O=C(NC(Cc1c[nH]c2ccccc12)C(=O)O)/C(=C\c1ccc2c(c1)OCO2)NC(=O)c1ccccc1` (stereo not drawn), -7.13%; under `COC(=O)c1ccc(C)c(NS(=O)(=O)c2ccc3c(c2)OCCO3)c1`, -26.8%. In the case of `COc1cc(C)ccc1OCCCON1C(=O)CCC1=O`, the “hERG current change (%, negative = inhibition) at 10uM” value was determined as 7.61%.
